{"source": "PubChem BioAssay AID504706", "about": "(National Center for Advancing Translational Sciences (NCATS), 2011)", "note": "The campaign covered roughly 320,000 compounds. About 200 (0.062%) were called active. The inconclusive results got no clear call from the source; some entries with a clear call stand among them for comparison. Calls come from the whole dose curve; as a rule, active = well fitted activation curve with a large enough effect; inconclusive = small, poorly fitted or top-dose-only effect; inactive = no such curve, though single readings can be large or run the other way. No potency is given beside an inconclusive call; the fits are too rough. Potency is the fitted concentration of half-maximal effect; tags give direction and shape of the fitted curve.", "data": [{"test": "qHTS assay for re-activators of p53 using a Luc reporter; note: nearly all actives have a fitted effect of over 45% in size; for activity change, positive = activation: % of control where 0% means no effect", "details": "H1299 p53-A138V BP100-luciferase reporter, luminescence, 24 h; series mostly up to 92.2 µM; activity change, positive = activation: at the top concentration", "in_short": "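p53-null H1299 cells stably carrying temperature-sensitive p53-A138V and a BP100-luciferase reporter were pinned with compounds (4-point, 1:5 series) and held 24 hrs at 37 deg C. Luminescence was read 10 min after detection reagent.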", "values": [{"compound": "CCOC(=O)c1nsnc1NCCSC(=N)N", "activity change, positive = activation": "inactive: 5.92%"}, {"compound": "CC1CCCC(C)N1C(=O)COC(=O)c1c[nH]c2ccccc12", "note": "(configuration not stated)", "Potency": "inconclusive [activator, partial curve, poor fit]"}, {"compound": "C/C(=N\\Nc1ccc(C(=O)O)cc1)c1nc2ccccc2n1C", "Potency": "inconclusive [activator, full curve, poor fit]"}, {"compound": "O=C(Nc1nc2ccsc2c(=O)s1)C1CCC1", "Potency": "inconclusive [activator, single point]"}, {"compound": "CCc1ccc(-n2nc3ccc(NC(=O)c4ccc5c(c4)OCO5)cc3n2)cc1", "activity change, positive = activation": "inactive: -2.59%"}, {"compound": "C=C(C)[C@@H]1CC=C(CN2CCN(Cc3ccccc3)CC2)CC1", "Potency": "inconclusive [activator, single point]"}, {"compound": "CS(=O)(=O)c1ccc(Cl)c(C(=O)Nc2ccc3nc(N4CCOCC4)sc3c2)c1", "Potency": "inconclusive [activator, single point]"}, {"compound": "Cc1ccc(NC(=O)NC(=O)CSc2nnc(-c3ccc(Cl)cc3Cl)n2N)c(C)c1", "Potency": "inconclusive [activator, full curve, poor fit]"}, {"compound": "O=S(=O)(Nc1cccc(-c2ccc(N3CCCCCC3)nn2)c1)c1ccc(F)cc1", "Potency": "inconclusive [activator, partial curve, poor fit]"}, {"compound": "CCN(CC)C(=O)Cn1cc(C(=O)C(=O)Nc2ccc3c(c2)OCCO3)c2ccccc21", "Potency": "inconclusive [activator, single point]"}, {"compound": "CC1Cc2ccccc2N1C(=O)CSc1nnc2c(n1)[nH]c1ccccc12", "note": "(configuration not stated)", "Potency": "inconclusive [activator, single point]"}, {"compound": "CSc1ccc(/C=N/NC(=O)c2cccs2)cc1", "Potency": "inconclusive [activator, partial curve, poor fit]"}, {"compound": "O=c1cc(Nc2ccc3c(c2)OCCO3)[nH]c(=O)n1Cc1ccc(F)cc1", "Potency": "inconclusive [activator, partial curve, poor fit]"}, {"compound": "O=C(O)[C@@H]1CCCC[C@@H]1C(=O)N1CCc2ccccc2C1CN1C(=O)c2ccccc2C1=O", "note": "(some centres not stated)", "Potency": "inconclusive [activator, full curve]"}, {"compound": "N#Cc1ccc(CN2CCN(C(=O)CNS(=O)(=O)c3ccc4c(c3)OCCCO4)CC2)cc1", "activity change, positive = activation": "inactive: 3.32%"}, {"compound": "CC(=O)Nc1cccc(CP(=O)(c2ccccc2)c2ccccc2)c1", "activity change, positive = activation": "inactive: -2.84%"}, {"compound": "CC(C)(C)NC(=O)CSc1nc2ccc(NC(=O)CSc3nnc(N)s3)cc2s1", "activity change, positive = activation": "inactive: -20.8%"}, {"compound": "Cc1cccc(NC(=O)Nc2ccc(S(=O)(=O)Nc3onc(C)c3C)cc2)c1", "Potency": "inconclusive [activator, partial curve, poor fit]"}, {"compound": "O=C(NCCN1CCCCC1)c1ccc(/C=N/O)nc1", "Potency": "inconclusive [activator, partial curve, poor fit]"}, {"compound": "Fc1cc(F)cc(Nc2nc(Cl)nc(NC3CCCC3)n2)c1", "Potency": "inconclusive [activator, partial curve, poor fit]"}, {"compound": "CCCCn1nc2cc(C(=O)NCC34CC5CC(CC(C5)C3)C4)ccc2c1OC", "activity change, positive = activation": "inactive: 8.01%"}, {"compound": "COC(=O)c1ccc(NC(=O)CSc2ccccc2)cc1", "Potency": "inconclusive [activator, partial curve, poor fit]"}, {"compound": "COC(=O)c1ccc(COc2ccc3c(c2)CCC3)o1", "activity change, positive = activation": "inactive: 0.206%"}, {"compound": "CCOP(=O)(OCC)C(NC(=O)Nc1ccccc1)C(N)=O", "note": "(configuration not stated)", "Potency": "inconclusive [activator, partial curve, poor fit]"}, {"compound": "COc1cccc(/C=N/Nc2c(Cl)cncc2Cl)c1O", "activity change, positive = activation": "inactive: 13.1%"}, {"compound": "CCOC(=O)c1c(OCC)[nH]c2c1cc(O)c1ccccc12", "activity change, positive = activation": "inactive: 19.1%"}, {"compound": "O=C1CC(c2cccc([N+](=O)[O-])c2)c2c(ccc3ccccc23)N1", "note": "(configuration not stated)", "Potency": "inconclusive [activator, partial curve, poor fit]"}, {"compound": "O=C(c1cc(-c2cccc(Cl)c2)on1)N1CCCC1", "Potency": "inconclusive [activator, full curve, poor fit]"}, {"compound": "CCOC(=O)c1[nH]cnc1N=Nc1c(O)ccc2ccccc12", "activity change, positive = activation": "inactive: 22.8%"}, {"compound": "CCc1ccc(OCC(=O)NNC(=O)c2cnccn2)c(Br)c1", "activity change, positive = activation": "inactive: -4.83%"}, {"compound": "C=CCNc1nc(N2CCCCC2)c(C#N)c2c1CN(Cc1ccccc1)CC2", "Potency": "inconclusive [activator, full curve, poor fit]"}, {"compound": "O=C(Nc1ccc2c(c1)OCCO2)c1ccco1", "Potency": "inconclusive [activator, partial curve, poor fit]"}, {"compound": "CC1CC(C)CN(S(=O)(=O)c2ccc(C(=O)Nc3nnc(-c4cccs4)o3)cc2)C1", "note": "(configuration not stated)", "Potency": "inconclusive [activator, full curve, poor fit]"}, {"compound": "Cc1ccc(NC(=O)c2cccc(NC(=O)/C=C/c3ccco3)c2)cc1C", "Potency": "inconclusive [activator, partial curve, poor fit]"}, {"compound": "Cc1sc2nc(CN3CCCC3)nc(N3CCN(S(=O)(=O)c4cccs4)CC3)c2c1C", "Potency": "inconclusive [activator, single point]"}, {"compound": "Cc1cccc(N2CCN(C(=O)CCN3C(=S)NC(C)(C)CC3C)CC2)c1C", "note": "(configuration not stated)", "activity change, positive = activation": "inactive: -0.862%"}, {"compound": "CCCSc1nnc(-c2c[nH]c3ccccc23)n1C", "Potency": "inconclusive [activator, partial curve, poor fit]"}, {"compound": "O=C(NCc1ccc(F)cc1)c1cc(-c2cccs2)on1", "Potency": "inconclusive [activator, single point]"}, {"compound": "O=C(CCN1CCN(C(c2ccccc2)c2ccccc2)CC1)N/N=C/c1ccc(O)cc1O", "Potency": "inconclusive [activator, full curve, poor fit]"}, {"compound": "CC(=O)N1CCc2cc(S(=O)(=O)NCC(=O)NCc3ccc(Cl)cc3)ccc21", "activity change, positive = activation": "inactive: -3.57%"}, {"compound": "Cn1cc(Cl)c(-c2n[nH]c(=S)n2C2CCCCC2)n1", "activity change, positive = activation": "inactive: -2.36%"}, {"compound": "CC(/C=C/C=C/c1ccccc1)=N/NC(=O)CNc1ccc(C)cc1", "Potency": "inconclusive [activator, partial curve, poor fit]"}, {"compound": "CC(C)c1c(C(=O)N/N=C/c2ccc(C(F)(F)F)cc2)nnn1-c1nonc1N", "Potency": "inconclusive [activator, single point]"}, {"compound": "Cn1c(=O)c2c(nc(NCC(O)CO)n2CCc2ccccc2)n(C)c1=O", "note": "(configuration not stated)", "activity change, positive = activation": "inactive: 4.24%"}, {"compound": "CC1CN(CCOc2cccc(Oc3ccccc3)c2)CC(C)O1", "note": "(configuration not stated)", "Potency": "inconclusive [activator, single point]"}, {"compound": "Cc1ccc(NC(=S)Nc2cccc3ccccc23)cc1F", "Potency": "inconclusive [activator, partial curve]"}, {"compound": "CCOC(=O)c1cnc(-c2ccccc2)nc1N(C)C", "Potency": "inconclusive [activator, partial curve, poor fit]"}, {"compound": "Cc1c2ccccc2nc2c(F)c(N(C)C)c(F)c(F)c12", "Potency": "inconclusive [activator, full curve, poor fit]"}, {"compound": "O=C1CCCC/C1=N\\Nc1ccc(OCc2ccccc2)cc1", "Potency": "inconclusive [activator, partial curve, poor fit]"}, {"compound": "C/C(=N\\NC(=O)c1nn(C)cc1Br)c1cccc(NC(=O)C2CCCC2)c1", "Potency": "inconclusive [activator, single point]"}, {"compound": "COc1ccc(NC(=O)N2CCCCC2)cc1", "Potency": "inconclusive [activator, full curve, poor fit]"}, {"compound": "COc1ccc2nc(NC(=O)CSc3nnc(N)s3)sc2c1", "Potency": "inconclusive [activator, partial curve, poor fit]"}, {"compound": "CC1(C)Cc2c(sc(NC(=O)C(=O)N3CCCC3)c2C(=O)O)CO1", "activity change, positive = activation": "inactive: 3.09%"}, {"compound": "COc1ccc(NC(=O)c2cccc(OS(=O)(=O)N(C)C)c2)cc1", "activity change, positive = activation": "inactive: -3.76%"}, {"compound": "Cc1cccc(NC(=O)NCC(c2ccc(F)cc2)N2CCN(C)CC2)c1", "note": "(configuration not stated)", "Potency": "inconclusive [activator, single point]"}, {"compound": "CC(C)C(NC(=O)C1CCCCC1)C(=O)Nc1ccc2c(c1)OCCO2", "note": "(configuration not stated)", "Potency": "inconclusive [activator, partial curve, poor fit]"}, {"compound": "O=C(Nc1ccccc1N1CCCCC1)c1ccc(OC(F)F)cc1", "activity change, positive = activation": "inactive: 3.89%"}, {"compound": "O=C(c1ccc(Cl)cc1)c1cnc2ccccn12", "Potency": "inconclusive [activator, partial curve, poor fit]"}, {"compound": "O=C(Nc1ccccc1N1CCCC1)c1cc2ccccc2o1", "Potency": "inconclusive [activator, partial curve, poor fit]"}, {"compound": "Cc1ncc(N=Nc2ccccc2)c(-c2ccccc2)n1", "activity change, positive = activation": "inactive: -5.03%"}, {"compound": "COc1ccc2nc(NC(=O)c3cccc(N4C(=O)CCC4=O)c3)sc2c1", "Potency": "inconclusive [activator, partial curve, poor fit]"}, {"compound": "O=C(CN(C(=O)c1csnn1)c1cccc(C(F)(F)F)c1)NCc1ccc(F)cc1", "activity change, positive = activation": "inactive: -4.49%"}, {"compound": "CCOc1cc(/C=C/C(=O)c2ccc(O)cc2)ccc1OCC(=O)N(C)C", "Potency": "inconclusive [activator, single point]"}, {"compound": "O=[N+]([O-])c1c(NCCCO)cc(N2CCCCCC2)c2nonc12", "activity change, positive = activation": "inactive: -3.67%"}, {"compound": "COc1ccc(/C=C/c2ccccc2)cc1[C@H]1[C@@H]2C=CCC[C@@]2(C)C(=O)N1Cc1ccccc1", "Potency": "inconclusive [activator, single point]"}, {"compound": "N#CC1=C(N)Oc2c(ccc3cccnc23)C1c1cccnc1", "note": "(configuration not stated)", "Potency": "inconclusive [activator, partial curve, poor fit]"}, {"compound": "CCC(=O)Nc1ccc2c(c1)ncn2-c1ccccc1", "Potency": "inconclusive [activator, partial curve, poor fit]"}]}]}
